According to article PMC2363329, “Interaction of the PA2G4 (EBP1) protein with ErbB-3 and regulation of this binding by heregulin” (British Journal of Cancer, 2000):
These are yes or no findings as the source states them, for the method shown. Binding seen in cells or lysates may run through a third protein. Some results given as binding are weak or reduced against the parent protein; the word gives no strength. Where a sequence is shown, tags or fusion partners need not be part of it.

Key:
[1] = molecular target: T1, GST/erbB3 (665-732) (rat) (UniProt Q62799); assay: pull-down; equal amounts of purified GST or GST-erbB3 fusion proteins incubated with in vitro translated 35S-labelled Ebp1 at 4C for 2 h; SDS-PAGE and autoradiography; only the target purified
T1 sequence: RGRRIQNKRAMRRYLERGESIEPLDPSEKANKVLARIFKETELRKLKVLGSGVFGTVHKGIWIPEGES

[2] = molecular target: T2, Alanine scanning mutant A3 of GST/ErbB-3 (665-690) (rat) (UniProt Q62799); assay: as above
T2 sequence: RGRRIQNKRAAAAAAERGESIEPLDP

[3] = molecular target: T3, GST/erbB3 (665-756) (rat) (UniProt Q62799); assay: as above
T3 sequence: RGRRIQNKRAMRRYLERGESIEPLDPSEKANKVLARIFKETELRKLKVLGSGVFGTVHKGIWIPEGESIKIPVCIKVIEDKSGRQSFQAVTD

[4] = molecular target: T4, Alanine scanning mutant A1 of GST/ErbB-3 (665-690) (rat) (UniProt Q62799); assay: as above
T4 sequence: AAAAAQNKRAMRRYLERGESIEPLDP

[5] = molecular target: T5, GST-ErbB-3 (aa 665-690) (rat); assay: as above
T5 sequence: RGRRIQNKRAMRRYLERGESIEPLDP

[6] = molecular target: T6, Alanine scanning mutant A2 of GST/ErbB-3 (665-690) (rat) (UniProt Q62799); assay: as above
T6 sequence: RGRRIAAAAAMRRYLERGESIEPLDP

[7] = molecular target: T7, GST-ErbB-3 (aa 665-1339) fusion protein (rat) (UniProt Q62799); assay: as above
T7 sequence: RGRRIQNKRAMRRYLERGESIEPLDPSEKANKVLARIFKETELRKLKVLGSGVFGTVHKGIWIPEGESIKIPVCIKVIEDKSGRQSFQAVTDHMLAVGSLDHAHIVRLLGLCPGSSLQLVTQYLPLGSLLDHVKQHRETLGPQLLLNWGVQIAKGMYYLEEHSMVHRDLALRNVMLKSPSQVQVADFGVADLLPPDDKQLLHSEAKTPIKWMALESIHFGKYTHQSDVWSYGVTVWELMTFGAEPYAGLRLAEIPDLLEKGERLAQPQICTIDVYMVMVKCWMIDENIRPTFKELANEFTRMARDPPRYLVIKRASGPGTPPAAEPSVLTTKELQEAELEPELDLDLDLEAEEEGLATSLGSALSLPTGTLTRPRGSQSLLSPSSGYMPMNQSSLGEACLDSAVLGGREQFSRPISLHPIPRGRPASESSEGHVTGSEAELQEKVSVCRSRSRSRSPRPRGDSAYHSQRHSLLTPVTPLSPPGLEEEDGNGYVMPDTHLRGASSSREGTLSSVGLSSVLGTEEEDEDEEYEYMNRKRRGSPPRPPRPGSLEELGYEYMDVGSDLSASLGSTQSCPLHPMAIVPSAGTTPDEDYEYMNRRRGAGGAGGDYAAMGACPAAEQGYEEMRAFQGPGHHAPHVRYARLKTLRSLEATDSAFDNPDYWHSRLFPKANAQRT

[8] = molecular target: T8, GST/erbB3 (665-711) (rat) (UniProt Q62799); assay: as above
T8 sequence: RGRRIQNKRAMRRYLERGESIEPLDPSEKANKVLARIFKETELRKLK

[9] = molecular target: T9, Alanine scanning mutant A4 of GST/ErbB-3 (665-690) (rat) (UniProt Q62799); assay: as above
T9 sequence: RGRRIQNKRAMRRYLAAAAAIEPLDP

[10] = molecular target: T10, GST-ErbB3 (aa 756-1339) (rat) (UniProt Q62799); assay: as above
T10 sequence: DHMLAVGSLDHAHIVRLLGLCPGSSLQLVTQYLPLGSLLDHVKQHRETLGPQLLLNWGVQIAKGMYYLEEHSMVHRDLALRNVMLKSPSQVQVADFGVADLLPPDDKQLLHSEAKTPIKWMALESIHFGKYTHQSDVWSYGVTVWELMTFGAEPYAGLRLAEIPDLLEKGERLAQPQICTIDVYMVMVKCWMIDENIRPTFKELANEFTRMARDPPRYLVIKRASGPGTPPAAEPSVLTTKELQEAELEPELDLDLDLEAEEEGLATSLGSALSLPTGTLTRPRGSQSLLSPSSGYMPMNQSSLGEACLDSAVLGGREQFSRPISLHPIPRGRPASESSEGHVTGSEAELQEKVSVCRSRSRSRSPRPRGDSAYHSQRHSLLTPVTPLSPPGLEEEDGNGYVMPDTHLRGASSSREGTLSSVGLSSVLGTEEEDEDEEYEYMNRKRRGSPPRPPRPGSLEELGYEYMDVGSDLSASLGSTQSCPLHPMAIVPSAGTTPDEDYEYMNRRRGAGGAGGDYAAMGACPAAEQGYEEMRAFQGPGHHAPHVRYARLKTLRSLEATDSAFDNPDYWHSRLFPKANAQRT

[11] = molecular target: T5, GST-ErbB-3 (aa 665-690) (rat); assay: pull-down; competition: in vitro translated 35S-Ebp1 incubated with GST-ErbB-3 (aa 665-690) in the presence of 75-, 250-, 500- or 1000-fold excess of ErbB-3 peptide (aa 665-690); the pair that is blocked; only the target purified

B1: 35S-labelled in vitro translation product of pBK/Ebp1 (amino acids 1-373 of Ebp1) (domain or fragment, UniProt Q9UQ80 1-373)
chain: MSGEDEQQEQTIAEDLVVTKYKMGGDIANRVLRSLVEASSSGVSVLSLCEKGDAMIMEETGKIFKKEKEMKKGIAFPTSISVNNCVCHFSPLKSDQDYILKEGDLVKIDLGVHVDGFIANVAHTFVVDVAQGTQVTGRKADVIKAAHLCAEAALRLVKPGNQNTQVTEAWNKVAHSFNCTPIEGMLSHQLKQHVIDGEKTIIQNPTDQQKKDHEKAEFEVHEVYAVDVLVSSGEGKAKDAGQRTTIYKRDPSKQYGLKMKTSRAFFSEVERRFDAMPFTLRAFEDEKKARMGVVECAKHELLQPFNVLYEKEGEFVAQFKFTVLLMPNGPMRITSGPFEPDLYKSEMEVQDAELKALLQSSASRKTQKKKKKK
modifications: 35S-labelled
For B1, the binding [1] was “binds”, the binding [2] was “no binding” and the binding [3] was “binds”. The binding [4] was “no binding”, the binding [5] was “binds” and the binding [6] was “no binding”. For the same binder, the binding [7] was “binds”, the binding [8] was “binds” and the binding [9] was “binds”. The binding [10] was “no binding” and the binding [11] was “binds”.
